Data on 7 compounds can be found in US11629139B2 (priority 2017, dated 2023).

For the series the following is noted: for Mouse plasma stability (% at 4 hours): % remained after four hours; for Plasma stability: Tables 9-10; for m-plasma stability: mouse plasma. The method, then:
Plasma stability was evaluated by incubating 10 μM test compound with undiluted plasma at 37° C. with aliquots removed at multiple time points out to four hours. Aliquots were added to acetonitrile (5×, v:v) to stop any enzymatic activity and held on ice. Samples were centrifuged through a Millipore Multiscreen Solvinter 0.45 micron low binding PTFE hydrophilic filter plate and analyzed by LC-MS/MS.

Take `CS(=O)(=O)c1ccc(COc2ccc(Cl)cc2CN2CCN(C(=O)CNC(=O)C3CC34CCC(F)(F)CC4)CC2)cc1` (single isomer, unassigned; (-)) [(−)-1476]: the “Mouse plasma stability (% at 4 hours)” value is given as 69%.

Regarding `[2H]C([2H])(c1cc(Cl)ccc1NCc1ccc(S(C)(=O)=O)cc1)N1CCN(C(=O)CNC(=O)C2CC23CCC(F)(F)CC3)CC1` (single isomer, unassigned; (-)) [(−)-1503], the “Mouse plasma stability (% at 4 hours)” value is given as 72%.

Take `[2H]C([2H])(c1cc(Cl)ccc1N)N1CCN(C(=O)CNC(=O)CC2CCC(F)(F)CC2)CC1` [Compound 1412, N-(2-(4-((2-amino-5-chlorophenyl)methyl-d2)piperazin-1-yl)-2-oxoethyl)-2-(4,4-difluorocyclohexyl)acetamide]: the Plasma stability entry is listed as “Plasma stability: Stable”. Take `[2H]C([2H])(c1cc(Cl)ccc1N)N1CCN(C(=O)CNC(=O)C2CC23CCC(F)(F)CC3)CC1` (stereo not shown) [Compound 1413, N-(2-(4-((2-amino-5-chlorophenyl)methyl-d2)piperazin-1-yl)-2-oxoethyl)-6,6-difluorospiro[2.5]octane-1-carboxamide]: the Plasma stability result is on record as “Plasma stability: Stable”. `CS(=O)(=O)c1ccc(COc2ccc(Cl)cc2CN2CCN(C(=O)CNC(=O)C3CC34CCC(F)(F)CC4)CC2)cc1` (stereo not shown) [Compound 1476]: the m-plasma stability result was “stable”. As for `CS(=O)(=O)c1ccc(CNc2ccc(Cl)cc2CN2CCN(C(=O)CNC(=O)CC3CCC(F)(F)CC3)CC2)cc1` [Compound 1477], the m-plasma stability result is listed as “stable”.

For `CS(=O)(=O)c1ccc(CNc2ccc(Cl)cc2CN2CCN(C(=O)CNC(=O)C3CC34CCC(F)(F)CC4)CC2)cc1` (stereo not shown) [Compound 1478], the m-plasma stability entry was “stable”.
